# According to PubChem BioAssay AID588591 (National Center for Advancing Translational Sciences (NCATS), 2011):
# Screen size: about 390,000 compounds; about 4,700 (1.2%) were called active. Inconclusive results, whose numbers are uncertain, are shown with a selection of clear calls. The call rests on the fitted dose curve; in most records, active means well fitted inhibition curve with a large enough effect; inconclusive means small, poorly fitted or top-dose-only effect, or another doubt; inactive means no such curve, though single readings can be large or run the other way. Potencies beside an inconclusive call are fits to weak or partial responses and may not hold up.
# Biological target: DNA polymerase eta (Homo sapiens) (UniProt Q9Y253)
# Assay: qHTS for Inhibitors of Polymerase Eta
# Settings: recombinant Pol eta, fluorescent DNA replication assay; series mostly up to 114 µM
# Procedure, shortened: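 Pol eta (10 nM) was preincubated with compounds for 15 min at room temperature, after which fluorescent replication substrate (50 nM final) was added to start the reaction. Fluorescence was read kinetically at 0 and 10 min.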
# Potency means the concentration at half of the fitted maximal effect; tags describe the fitted curve by direction and shape.
# Chain of UniProt Q9Y253 (Q9Y253 whole entry, looked up): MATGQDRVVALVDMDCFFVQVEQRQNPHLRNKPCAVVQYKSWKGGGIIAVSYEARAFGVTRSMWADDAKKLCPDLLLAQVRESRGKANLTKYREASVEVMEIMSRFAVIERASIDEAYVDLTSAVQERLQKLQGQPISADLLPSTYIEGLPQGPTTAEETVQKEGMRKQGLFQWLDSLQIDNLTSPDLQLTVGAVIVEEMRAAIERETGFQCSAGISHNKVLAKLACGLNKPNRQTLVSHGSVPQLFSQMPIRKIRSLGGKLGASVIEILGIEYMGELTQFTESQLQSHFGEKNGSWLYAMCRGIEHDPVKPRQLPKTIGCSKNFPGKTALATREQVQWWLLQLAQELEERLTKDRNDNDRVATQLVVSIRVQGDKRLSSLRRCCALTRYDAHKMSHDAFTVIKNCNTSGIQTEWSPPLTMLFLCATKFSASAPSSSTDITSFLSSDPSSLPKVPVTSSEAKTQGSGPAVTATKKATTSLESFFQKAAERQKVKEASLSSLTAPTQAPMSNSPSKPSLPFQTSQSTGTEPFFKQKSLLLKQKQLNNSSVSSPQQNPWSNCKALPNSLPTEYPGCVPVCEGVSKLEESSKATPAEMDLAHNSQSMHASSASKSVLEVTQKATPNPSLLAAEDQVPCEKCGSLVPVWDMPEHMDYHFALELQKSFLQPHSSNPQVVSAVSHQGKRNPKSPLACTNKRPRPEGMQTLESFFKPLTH
row,SMILES,Potency
1,COc1cc2c(cc1OC)CN(C(=O)C1(c3ccccc3)CC1)CC2,"inconclusive: 25.1 µM [inhibitor, partial curve]"
2,Cc1ccc(-c2csc(-c3c[nH]c4ccccc34)n2)cc1,"inconclusive: 79.4 µM [inhibitor, partial curve, poor fit]"
3,CCN(CC)CCNC(=O)C12CC3CC(CC(C3)C1)C2,"inconclusive: 0.355 µM [inhibitor, partial curve, poor fit]"
4,Cc1ccc(N2CC(C(=O)OCC(=O)c3ccc[nH]3)CC2=O)cc1 (centres undefined),"inconclusive: 22.4 µM [inhibitor, partial curve, poor fit]"
5,COc1ccc(-c2nc(N)n[nH]2)cc1OC,"inconclusive: 7.94 µM [inhibitor, partial curve, poor fit]"
6,CC(Nc1nc2ncn(Cc3ccccc3)c2c(=O)[nH]1)C(=O)O (centres undefined),inactive
7,CCn1cc(C(=O)NCCc2ccc(Cl)cc2)c(=O)c2cc(S(=O)(=O)N3CCCCCC3)ccc21,"inconclusive: 28.2 µM [inhibitor, partial curve, poor fit]"
8,O=C(O)c1ccc(-c2ccc(/C=C3\NC(=O)N(Cc4ccc(Cl)cc4)C3=O)o2)cc1,active: 22.4 µM
9,COc1ccc(OC)c([N+](=O)[O-])c1C(N)=O,active: 50.1 µM
10,Cc1nn2c(=O)cc(COc3ccc(/C=C(\C#N)C(=O)Nc4ccccc4)cc3Cl)nc2s1,inactive
11,COc1ccc(NC(=O)Nc2cc(-c3cn4cccnc4n3)ccc2OC)cc1,"inconclusive: 79.4 µM [inhibitor, partial curve]"
12,CCCc1nnc(NC(=O)CCC(=O)N2CCN(S(=O)(=O)c3ccc(F)cc3)CC2)s1,"inconclusive: 89.1 µM [inhibitor, partial curve, poor fit]"
13,Cc1cn2c(=O)cc(COC(=O)c3ccc(NC(=O)COc4ccc(C)c(C)c4)cc3)nc2s1,inactive
14,Cc1cc(NS(=O)(=O)c2ccc(NC(=O)c3cnc4sccn4c3=O)cc2)nc(C)n1,active: 8.91 µM
15,COc1ccc(-n2nc(C(=O)NCC(=O)Nc3ccccn3)c3ccccc3c2=O)cc1,"inconclusive: 39.8 µM [inhibitor, single point]"
16,CCc1cccc(C)c1Nc1c(-c2cccs2)nc2nc(C)cc(C)n12,inactive
17,COc1ccc2nc(-c3ccccc3)cc(C(=O)OCC(=O)NC3CC3)c2c1,"inconclusive: 28.2 µM [inhibitor, partial curve]"
18,CC(C)OC(=O)c1ccc(NCc2cc(O)ccc2O)cc1Cl,"inconclusive: 10 µM [inhibitor, partial curve, poor fit]"
19,COc1ccc(F)cc1S(=O)(=O)n1cc(C)nc1-c1ccccc1,"inconclusive: 31.6 µM [inhibitor, partial curve, poor fit]"
20,COc1ccc(COc2ccsc2C(=O)Nc2ccc(Cl)c(Cl)c2)cc1,"inconclusive: 79.4 µM [inhibitor, single point]"
21,CC(=O)Oc1cc(C(=O)OCC(=O)N2CCc3ccccc3C2)cc(OC(C)=O)c1OC(C)=O,active: 7.08 µM
22,CCn1cc(CNC(=O)c2cc(-c3ccc(C)cc3)nc3ccc(Br)cc23)c(C)n1,"inconclusive: 56.2 µM [inhibitor, partial curve, poor fit]"
23,O=c1cc(-c2ccccc2)nc(Sc2ccc([N+](=O)[O-])cc2[N+](=O)[O-])[nH]1,"inconclusive: 31.6 µM [inhibitor, single point]"

row,SMILES,Potency
1,CC1(c2ccc(Cl)cc2)NC(=O)N(CC(=O)Nc2cccnc2Cl)C1=O (centres undefined),"inconclusive: 25.1 µM [inhibitor, partial curve, poor fit]"
2,COc1ccc(S(N)(=O)=O)cc1C(=O)OCC(=O)Nc1ncc(Cl)c(C)c1Cl,"inconclusive: 39.8 µM [inhibitor, partial curve]"
3,CNC(=O)C1CC(=O)N(c2ccc(OCC(=O)Nc3ccccc3)cc2)C1 (centres undefined),active: 31.6 µM
4,CC(C)c1ccc(S(=O)(=O)/N=C2\C=C(NS(=O)(=O)c3ccccc3)C(=O)c3ccccc32)cc1,active: 79.4 µM
5,O=c1nc2s/c(=C\c3ccco3)c(=O)n2nc1Cc1ccc(F)cc1,active: 7.08 µM
6,O=C1NC(=Nc2ccccc2Cl)S/C1=C\c1cccc([N+](=O)[O-])c1,"inconclusive: 79.4 µM [inhibitor, partial curve]"
7,COC1=C/C(=C/c2c(N)n3nc(CC(=O)N4CCOCC4)sc3nc2=O)C=CC1=O,active: 44.7 µM
8,Cc1ccc(CSc2nnc3nc(C)cc(C)n23)cc1,"inconclusive: 12.6 µM [inhibitor, full curve, poor fit]"
9,O=C(O)c1c(-n2cccc2)sc2c1CCCC2,inactive
10,COc1ccc(Cl)cc1-n1cc(-c2ccccc2)nc1SCC(=O)Nc1ccc(C)cc1,"inconclusive: 2 µM [inhibitor, partial curve, poor fit]"
11,Cc1nc2ccc(NC(=O)c3ccc(Cl)c([N+](=O)[O-])c3)cc2s1,inactive
12,CCCC(=O)Nc1ccc2nn(-c3ccc(OC)cc3)nc2c1,"inconclusive: 2.24 µM [inhibitor, full curve, poor fit]"
13,CCN(CC(=O)NC1CCS(=O)(=O)C1)S(=O)(=O)c1c(C)c(C)cc(C)c1C (centres undefined),inactive
14,O=C(COC(=O)CCc1nc2ccccc2c(=O)[nH]1)Nc1ccccc1,inactive
15,O=C(CSc1ccc(-c2ccco2)nn1)NCc1ccccc1,"inconclusive: 28.2 µM [inhibitor, partial curve, poor fit]"
16,O=C(Nc1nnc(COc2ccc(Cl)cc2)s1)c1ccc([N+](=O)[O-])cc1,"inconclusive: 2.82 µM [inhibitor, partial curve, poor fit]"
17,Cn1c(C(=O)NCCN2CCCCCC2)cc2c(=O)n(C)c3ccccc3c21,"inconclusive: 89.1 µM [inhibitor, partial curve]"
18,Cc1n[nH]c2ccccc2c1=O,"inconclusive: 14.1 µM [inhibitor, full curve, poor fit]"
19,N#Cc1c(N2CCCC2)nc(N)c2c(N)nc(N3CCCC3)cc12,active: 2.82 µM
20,CCCc1cc(=O)[nH]c(SCC(=O)Nc2c(C)cccc2C)n1,inactive
21,COc1ccc(N(C)S(=O)(=O)c2c(C)[nH]c(=O)[nH]c2=O)c(OC)c1,inactive
22,O=C(Nc1nnc(SCc2ccc(Cl)cc2)s1)c1cnccn1,"inconclusive: 39.8 µM [inhibitor, single point]"
23,Cc1cccc(NC(=O)CNC(=O)c2cccc(-n3cccc3)c2)c1C,active: 3.16 µM

row,SMILES,Potency
1,O=C(Nc1ccc(N2CCOCC2)cc1)c1ccc(Cl)nc1,"inconclusive: 25.1 µM [inhibitor, single point]"
2,Clc1ccc(N(CC2CO2)CC2CO2)cc1 (centres undefined),"inconclusive: 79.4 µM [inhibitor, partial curve, poor fit]"
3,C/C=C(/C(=C/C)c1ccc(O)cc1)c1ccc(O)cc1,inactive
4,Cc1cccc(/C=C/c2nc3ccccc3c(=O)[nH]2)c1,inactive
5,Cc1cccc(-c2cc3c(N=O)c4ccccc4c-3n[nH]2)c1,"inconclusive: 44.7 µM [inhibitor, partial curve]"
6,CCNc1ccc(S(=O)(=O)N(C)C)cc1NCC(=O)Nc1ccc(Br)cc1F,"inconclusive: 79.4 µM [inhibitor, partial curve, poor fit]"
7,COc1ccc(NC(=O)CCC2CCCCC2)cc1S(=O)(=O)N1CCCCC1,"inconclusive: 79.4 µM [inhibitor, partial curve, poor fit]"
8,Cc1cccc2nc(-c3cccc(NC(=O)Cc4ccccc4)c3)cn12,"inconclusive: 39.8 µM [inhibitor, partial curve, poor fit]"
9,COc1ccc(CNC(=O)Cc2c(C(=O)O)c(C)cn2C)cc1,inactive
10,Oc1ccc(/C=N/N(c2ccccc2)c2ccccc2)cc1O,inactive
11,O=C1CCCC2=C1C(c1ccco1)Nc1ccc3ccccc3c12 (centres undefined),active: 2 µM
12,CC(C(=O)N(C)C1CCS(=O)(=O)C1)N1C(=O)/C(=C/c2ccc(F)cc2)SC1=S (centres undefined),inactive
13,C#CCOCCOCCOCCNc1nc(N2CCN(C(=O)CCCCCCCCCCNC(=O)Cn3cc(C[C@@H](C)O)nn3)CC2)nc(N2CCN(C(=O)CCCCCCCCCCNC(=O)[C@@H]([C@H](C)CC)n3cc(CCCCCN)nn3)CC2)n1,active: 89.1 µM
14,O=C(/C=C/c1cccc(F)c1)N(c1ccccn1)C1CCCCC1,"inconclusive: 100 µM [inhibitor, partial curve, poor fit]"
15,COc1ccc(C(=O)NCc2nnc(SC)n2C2CCCCC2)cc1,inactive
16,COC(=O)c1ccccc1NC(=O)c1noc2c1CCC2,active: 20 µM
17,Cc1cc(Br)cc(Cl)c1OC(=O)c1cnccn1,"inconclusive: 20 µM [inhibitor, full curve]"
18,CC(C)=CC(=O)Nc1ccc(OCc2ccccc2)cc1,"inconclusive: 79.4 µM [inhibitor, partial curve, poor fit]"
19,CC(C)[C@H](NS(=O)(=O)c1cccc(Cl)c1)C(=O)OCC(=O)NC(=O)CN1CCCC1=O,active: 22.4 µM
20,CC(C)COc1cccc(-c2cc(C(=O)N/N=C/c3ccncc3)c3ccccc3n2)c1,"inconclusive: 44.7 µM [inhibitor, partial curve, poor fit]"
21,N#CCSc1ncnc2sc3c(c12)CCC3,active: 89.1 µM
22,NS(=O)(=O)c1ccc(CCNC(=O)c2ccc(-c3ccccc3)cc2)cc1,"inconclusive: 39.8 µM [inhibitor, partial curve, poor fit]"
23,O=C(Cc1nnc(NC(=O)c2ccccc2)s1)N/N=C\c1ccc(O)c(O)c1,active: 3.16 µM
